This is one part of the list. At the low end of the ranking, values are background and their order means little.
The sequences below were run against GST-SBP-SLBP (stem-loop binding protein) (UniProt Q14493) (assay: targeted RNA Bind-n-Seq). Conditions: RBNS binding buffer: 25 mM Tris pH 7.5, 150 mM KCl, 3 mM MgCl2, 0.1% Tween, 0.5 mg/mL BSA, 1 mM DTT; 27 nM protein, 750 pM RNA pool; temperature not stated; high values mean tight binding.
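Also: DESeq read counts versus GST-SBP nonspecific binding control pulldown.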

| Sequence | binding signal (log2 fold change) |
| --- | --- |
| GGUCACGUCUCAAUCAACUCUUAAGAGGGGGGGAAAACCCCUUUGCCCUCACCGUCAACAGCUCGCAGUCAAG | 0.0238 |
| GGUCACGUCUCAAUCAACUCCCACGAGGGGGGGAAAACCCCUUUACCCUCUCAUUCAACAGCUCGCAGUCAAG | 0.296 |
| GGUCACGUCUCAAUCAACUCUAAGGAGGGGGGGAAAACCCCUUUACCCUCAACAUCAACAGCUCGCAGUCAAG | 0.128 |
| GGUCACGUCUCAAUCAACUCAAUCCCAGGAGUUUUCUCCUGCUAUGUCAACAGCUCGCAGUCAAG | 0.1 |
| GGUCACGUCUCAAUCAACUCAGUUCCCAGGGAAAGCCCUGGCUUAUUCAACAGCUCGCAGUCAAG | -0.403 |
| GGUCACGUCUCAAUCAACUCCUAAGAGGGGGGGAAAACCCCUUUGCCCUCACAAUCAACAGCUCGCAGUCAAG | 0.0935 |
| GGUCACGUCUCAAUCAACUCAUCCUCAGGAGUUUACUCCUGUUUAUUCAACAGCUCGCAGUCAAG | 0.153 |
| GGUCACGUCUCAAUCAACUCUAGUCCAGGAGUUUUCUCCUGUUAUUUCAACAGCUCGCAGUCAAG | -0.108 |
| GGUCACGUCUCAAUCAACUCUCUAGAGGGGGGGAAAACCCCUUUGCCCUCAUCUUCAACAGCUCGCAGUCAAG | -0.202 |
| GGUCACGUCUCAAUCAACUCAUCGUCCAGGGAAACCCCUGGCUUUUUCAACAGCUCGCAGUCAAG | -0.162 |
| GGUCACGUCUCAAUCAACUCUUUCUCCAGGGAAAUCCCUGGUUAUGUCAACAGCUCGCAGUCAAG | 0.126 |
| GGUCACGUCUCAAUCAACUCAUCGCCAGGAGUUUACUCCUGCUUAUUCAACAGCUCGCAGUCAAG | -0.216 |
| GGUCACGUCUCAAUCAACUCUAUCCCAGGAGUUUUCUCCUGCAAAUUCAACAGCUCGCAGUCAAG | 0.0879 |
| GGUCACGUCUCAAUCAACUCUUCUCCCAGGGAAAACCCUGGCAAACUCAACAGCUCGCAGUCAAG | 0.00504 |
| GGUCACGUCUCAAUCAACUCUAGUCCAGGAGUUUACUCCUGUAUAUUCAACAGCUCGCAGUCAAG | -0.234 |
| GGUCACGUCUCAAUCAACUCAAUCCCAGGAGUUUUCUCCUGUAAUUUCAACAGCUCGCAGUCAAG | 0.0213 |
| GGUCACGUCUCAAUCAACUCAAUCCCCAGGGAAAUCCCUGGCUAACUCAACAGCUCGCAGUCAAG | 0.107 |
| GGUCACGUCUCAAUCAACUCUUCUCCAGGAGUUUUCUCCUGUUAACUCAACAGCUCGCAGUCAAG | 0.166 |
| GGUCACGUCUCAAUCAACUCUAUCUCCAGGGAAAGCCCUGGCAUUCUCAACAGCUCGCAGUCAAG | 0.181 |
| GGUCACGUCUCAAUCAACUCUAACGAGGGGGGGAAAACCCCUUUACCCUCAUAAUCAACAGCUCGCAGUCAAG | 0.101 |
| GGUCACGUCUCAAUCAACUCAUCUCCCAGGGAAAACCCUGGUAAACUCAACAGCUCGCAGUCAAG | 0.0283 |
| GGUCACGUCUCAAUCAACUCAACUUCCAGGGAAACCCCUGGUAAUUUCAACAGCUCGCAGUCAAG | -0.0545 |
| GGUCACGUCUCAAUCAACUCUUCCCCCAGGGAAAGCCCUGGUUUACUCAACAGCUCGCAGUCAAG | 0.0369 |
| GGUCACGUCUCAAUCAACUCUACUCCAGGAGUUUUCUCCUGUAAUUUCAACAGCUCGCAGUCAAG | 0.0252 |

| Sequence | binding signal (log2 fold change) |
| --- | --- |
| GGUCACGUCUCAAUCAACUCUAUAGAGGGGGGGAAAACCCCUUUGCCCUCACUUUCAACAGCUCGCAGUCAAG | 0.24 |
| GGUCACGUCUCAAUCAACUCUUUCUCCAGGGAAAUCCCUGGCAUUCUCAACAGCUCGCAGUCAAG | 0.174 |
| GGUCACGUCUCAAUCAACUCUAUCCCCAGGGAAACCCCUGGCAAUCUCAACAGCUCGCAGUCAAG | -0.392 |
| GGUCACGUCUCAAUCAACUCAACUCCCAGGGAAAACCCUGGUAAUUUCAACAGCUCGCAGUCAAG | -0.0441 |
| GGUCACGUCUCAAUCAACUCUAACGAGGGGGGGAAAACCCCUUUACCCUCCACAUCAACAGCUCGCAGUCAAG | 0.0364 |
| GGUCACGUCUCAAUCAACUCUUCCCCAGGAGUUUUCUCCUGCAUUCUCAACAGCUCGCAGUCAAG | 0.131 |
| GGUCACGUCUCAAUCAACUCUUUUUCAGGAGUUUACUCCUGUUAUGUCAACAGCUCGCAGUCAAG | 0.0993 |
| GGUCACGUCUCAAUCAACUCAUCGUCAGGAGUUUCCUCCUGUUUUUUCAACAGCUCGCAGUCAAG | 0.11 |
| GGUCACGUCUCAAUCAACUCUUUCUCAGGAGUUUUCUCCUGUUUAUUCAACAGCUCGCAGUCAAG | -0.0246 |
| GGUCACGUCUCAAUCAACUCAUACGAGGGGGGGAAAACCCCUUUGCCCUCACUUUCAACAGCUCGCAGUCAAG | -0.195 |
| GGUCACGUCUCAAUCAACUCAUCUCCAGGAGUUUUCUCCUGUAAAUUCAACAGCUCGCAGUCAAG | 0.0718 |
| GGUCACGUCUCAAUCAACUCUAAAGAGGGGGGGAAAACCCCUUUGCCCUCCAUAUCAACAGCUCGCAGUCAAG | -0.0699 |
| GGUCACGUCUCAAUCAACUCAUUUUCCAGGGAAAUCCCUGGUUAUUUCAACAGCUCGCAGUCAAG | 0.054 |
| GGUCACGUCUCAAUCAACUCUCACGAGGGGGGGAAAACCCCUUUGCCCUCAUAAUCAACAGCUCGCAGUCAAG | 0.161 |
| GGUCACGUCUCAAUCAACUCAAUUCCAGGAGUUUCCUCCUGCAAAUUCAACAGCUCGCAGUCAAG | 0.105 |
| GGUCACGUCUCAAUCAACUCUUUCUCAGGAGUUUCCUCCUGCAUACUCAACAGCUCGCAGUCAAG | -0.0332 |
| GGUCACGUCUCAAUCAACUCUUUUUCAGGAGUUUCCUCCUGCUAUCUCAACAGCUCGCAGUCAAG | 0.0115 |
| GGUCACGUCUCAAUCAACUCACUAGAGGGGGGGAAAACCCCUUUGCCCUCAAUAUCAACAGCUCGCAGUCAAG | -0.44 |
| GGUCACGUCUCAAUCAACUCAAUUUCAGGAGUUUACUCCUGCUAUCUCAACAGCUCGCAGUCAAG | -0.0512 |
| GGUCACGUCUCAAUCAACUCUUAAGAGGGGGGGAAAACCCCUUUACCCUCACAAUCAACAGCUCGCAGUCAAG | 0.0176 |
| GGUCACGUCUCAAUCAACUCAUUUCCAGGAGUUUUCUCCUGCAAUCUCAACAGCUCGCAGUCAAG | 0.0708 |
| GGUCACGUCUCAAUCAACUCCACGGAGGGGGGGAAAACCCCUUUACCCUCAUCCUCAACAGCUCGCAGUCAAG | -0.149 |
| GGUCACGUCUCAAUCAACUCAGUUUCAGGAGUUUCCUCCUGCUAUCUCAACAGCUCGCAGUCAAG | 0.136 |

— paper PMC5892938
